# Laboratory results as given in PubChem BioAssay AID463173 (ICCB-Longwood Screening Facility, Harvard Medical School, 2010).
# Hit rate of the full screen: of about 52,000 compounds, about 1,700 (3.3%) were called active. No stated cut-off is given here; in the data, active means survival mostly below about 52% (no sharp cut-off); inactive means mostly above about 56%. The list shows a part of the results.
# System: Wild type
# Assay: S. aureus survival, RN4220 and DeltatarO strains – OD600, teichoic acid synthesis inhibitors, primary screen (AID 463173)
# Details: S. aureus RN4220 wild type/DeltatarO growth, OD600, 18 h, stronger effect = lower value, screened at 18.75 µg/mL (by protocol)
row,Compound,survival
1,CCN(CC)S(=O)(=O)c1ccc2c(c1)N(CC(=O)NCc1ccc(F)cc1)C(=O)CO2,inactive: 73%
2,Cc1cc(N2CCN(c3cccc(C(F)(F)F)c3)CC2)n2nc(-c3ccccc3C)nc2n1,active: 11%
3,CCCOc1ccc(C2C(=O)N(C3CCCCCC3)CC(=O)N2Cc2ccc(OC)cc2)cc1OC (configuration not stated),inactive: 64%
4,CC(C)=CCCC1=CCC2C(=O)NNC(=O)C2C1 (configuration not stated),inactive: 107%
5,Cc1ccc2oc(=O)c3cnn(CC(=O)N4CCN(c5cccc(C(F)(F)F)c5)CC4)c3c2c1,inactive: 85%
6,CCC(C)NC(=O)CSc1nc2c(sc3ccccc32)c(=O)n1CCc1ccccc1 (configuration not stated),inactive: 87%
7,O=S(=O)(c1cccc(C(F)(F)F)c1)N1CCC(Oc2ccc(-n3cnnn3)cc2)CC1,inactive: 81%
8,COc1cccc(NC(=O)Cn2c(=O)n(Cc3ccccc3)c(=O)c3c2c2cc(C)ccc2n3C)c1,inactive: 72%
9,COc1ccc(NC(=O)C2=C(C)Nc3c(C(=O)Nc4ccc(C)cc4)cnn3C2c2cc(OC)ccc2OC)cc1 (configuration not stated),inactive: 76%
10,Cc1cc(C)c2oc(-c3cc(NC(=O)Cc4ccccc4)ccc3Cl)nc2c1,inactive: 45%
11,N#Cc1c(N)n[nH]c1-c1cc2c([nH]1)CCCC2,inactive: 104%
12,CN(C)c1ccc(C2CC(c3c(O)n(C4CCCCC4)c(=O)[nH]c3=O)=Nc3ccccc3S2)cc1 (configuration not stated),inactive: 85%
13,CCCN1CCc2nc(SCC(=O)Nc3ccc(C)c(Cl)c3)[nH]c(=O)c2C1,inactive: 99%
14,c1ccc(CSc2nnc(C3CCNCC3)o2)cc1,inactive: 89%
15,CCOc1ccc(C(=O)N2CCC(c3nc(-c4ccc(S(=O)(=O)N5CCCC5)cc4)no3)CC2)cc1,inactive: 94%
16,Cc1cc2c(cc(C(=O)OC(C(=O)NCC3CCCO3)C(C)C)n2C)o1 (configuration not stated),inactive: 120%
17,C1=CCC(CN2CCN(Cc3ccccc3)CC2)CC1 (configuration not stated),inactive: 111%
18,CC(=O)Nc1nc2ccccc2n1Cc1ccc(C)cc1,inactive: 96%
19,COC(=O)c1ccc(NC(=O)CCn2cccn2)cc1,inactive: 88%

row,Compound,survival
1,Cc1ccc(C(C)C)c(OCC(=O)Nc2cccc(-c3nc4ncccc4o3)c2)c1,active: 2%
2,O=c1[nH]c2ccc(NCc3ccc(-c4ccccc4F)o3)cc2[nH]1,inactive: 88%
3,CCOc1ccc(-c2cc3c(=O)n(Cc4nc(-c5ccc(OC)cc5OC)oc4C)ccn3n2)cc1Cl,inactive: 158%
4,COc1cccc(Oc2nc3c(c(=O)n(Cc4ccccc4Cl)c(=O)n3C)n2C)c1,inactive: 77%
5,O=C(NC1CCCCC1)c1cccs1,inactive: 116%
6,CCOc1ccc(NC(=O)N(Cc2ccc(CC)cc2)Cc2cn[nH]c2-c2ccc(OC)cc2)cc1,inactive: 73%
7,COc1ccc(CNC(=O)c2ccc3c(c2)N(Cc2ccccc2)C(=O)c2ccccc2S3=O)cc1 (configuration not stated),inactive: 88%
8,CCc1ccccc1OCCSc1nc(-c2cccs2)nc2cc(=O)[nH]n12,inactive: 110%
9,CN(C)CCCNc1ncnc2ccc(Br)cc12,inactive: 100%
10,COc1ccccc1NC(=O)c1nnn(-c2ccc(F)cc2)c1C,inactive: 65%
11,Cc1cc(F)ccc1NC(=O)C(C(C)C)N1Cc2ccccc2C1=O (configuration not stated),inactive: 120%
12,CC(=O)Nc1ccc(S(=O)(=O)NC2=NCN(C(C)C)CN2)cc1,inactive: 143%
13,COc1ccc(C(=O)N2CC(=O)Nc3ccc(C)cc3C2c2ccc(F)cc2)c(OC)c1 (configuration not stated),inactive: 143%
14,O=c1c(-c2cc(-c3ccc(Cl)cc3)nc3c2COc2ccccc2-3)coc2ccccc12,inactive: 102%
15,CN(CC(=O)NCc1ccccc1Cl)S(=O)(=O)c1ccc2c(c1)c(=O)n(C)c(=O)n2C,inactive: 122%
16,Cc1ccc(Cl)cc1N1CCN(C(=O)Cc2c(C(=O)O)c(C)cn2C)CC1,inactive: 55%
17,Cc1sc2ncn(CC(=O)N3CCN(c4ccccc4F)CC3)c(=O)c2c1S(=O)(=O)N1CCN(c2ncccn2)CC1,inactive: 95%
18,CC(C)CC(NC(N)=O)C(=O)O (configuration not stated),inactive: 101%
19,CCC(=O)N1CCc2cc(Br)cc(S(=O)(=O)CCC(=O)NCCc3ccc(C)cc3)c21,inactive: 130%

row,Compound,survival
1,CCc1ccc(CNC(=O)c2cnc(N3CCCCC3)c3ccccc23)cc1,inactive: 69%
2,COc1ccc(S(=O)(=O)Nc2cccc(-c3ccc(N4CCCCCC4)nn3)c2)cc1F,inactive: 71%
3,COc1ccc(CCNC(=O)C(=O)Nc2ccc(C)c(C)c2)cc1,inactive: 75%
4,Cc1cccc2cc(CN(C(=O)c3ccncc3)C3CCCC3)c3nnnn3c12,inactive: 88%
5,O=C(CSc1nc2c(c(=O)[nH]1)CCCC2)Nc1ccccc1C(F)(F)F,inactive: 80%
6,CC(C)c1ccc(S(=O)(=O)c2cn(CC(=O)Nc3ccc(F)cc3)c3ccccc3c2=O)cc1,inactive: 55%
7,CC1CCN(S(=O)(=O)c2cc(C(=O)NCc3ccc(N(C)C)cc3)n(C)c2)CC1,inactive: 78%
8,O=C(Nc1cccc(C(F)(F)F)c1)c1cccs1,inactive: 116%
9,O=C(CN1C(=O)CC(c2ccco2)Sc2ccccc21)Nc1cccc(C(F)(F)F)c1 (configuration not stated),inactive: 106%
10,CCOc1ccc(NC(=O)Cn2c(=O)cc(C)c3c(C)nn(C)c32)cc1,inactive: 71%
11,Cc1ccc(NC(=O)CCN2CC(C)CC(C)C2)cc1 (configuration not stated),inactive: 93%
12,Cc1ccccc1CN1c2ccccc2-c2nc(SCC(=O)c3ccc(Cl)cc3)ncc2S1(=O)=O,inactive: 71%
13,Cc1csc2nc(-c3cccc(NS(C)(=O)=O)c3)cn12,inactive: 85%
14,COCCCNC(=O)CCCN1C(=O)CCn2nc(-c3cccn3C)cc21,inactive: 99%
15,CCc1ccccc1NC(=O)Cn1c(=O)n(Cc2ccccc2)c(=O)c2c(C)c(C(=O)N(C)C)sc21,inactive: 60%
16,CC(=O)NC1(NC(C)=O)CC(c2ccccc2)N(C)CC1C (configuration not stated),inactive: 100%
17,Cc1csc2nc(-c3ccc(NS(=O)(=O)c4cccc(F)c4)cc3)cn12,inactive: 72%
18,Cc1ccc(-c2nc(C)c(CCNC(=O)C(=O)Nc3cc(C)ccc3C)s2)cc1,inactive: 57%
19,CCOC(=O)c1c(NC(=S)NC(=O)c2c(I)cnn2C)sc2c1CCC(C)C2 (configuration not stated),inactive: 106%
